From the supplement of paper PMC6531468
The other results are listed elsewhere or left out. Values come from read counts of a selection and are noisy. Scores sum up all selected molecules that hold the word; the word was not tested alone.

System: IMP3 KH3-4
Assay: 6-mer SELEX enrichment z-score vs GST control; IMP3 is the RNA-binding protein IGF2BP3; higher = more enriched by binding
Details: construct: KH3-4 (377-579); SELEX round: R4
Method: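 SELEX-seq with GST-tagged IMP3 KH3-4 (Pro377-Lys579) and an N40 RNA pool, round 4. 6-mer z-score of sequence-tag enrichment normalised to the corresponding GST SELEX round; RNA k-mers written as DNA (T for U).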

Sequence of IMP3 KH3-4 (chain, as listed by the source): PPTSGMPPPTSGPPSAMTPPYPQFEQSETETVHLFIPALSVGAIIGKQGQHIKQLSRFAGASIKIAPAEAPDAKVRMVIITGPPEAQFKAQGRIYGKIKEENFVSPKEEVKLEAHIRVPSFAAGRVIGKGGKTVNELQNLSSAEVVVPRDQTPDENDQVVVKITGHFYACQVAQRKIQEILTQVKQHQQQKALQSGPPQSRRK

How did the “6-mer SELEX enrichment z-score” value turn out when AGACGT was run?
The value was -1.06.

Which “6-mer SELEX enrichment z-score” value does the source give for GCCTAA here?
The value was -0.701.

TGATTG was tested. Which “6-mer SELEX enrichment z-score” value did it give?
Its value is 0.624.

TTCGCG was tested. Which “6-mer SELEX enrichment z-score” value did it give?
The value was -0.292.

How did the “6-mer SELEX enrichment z-score” value turn out when AAATCA was run?
The value was 0.94.

ACTCAT was tested. Which “6-mer SELEX enrichment z-score” value did it give?
The value was -0.143.

Which “6-mer SELEX enrichment z-score” value does the source give for TCGTCG here?
The value was -0.111.

For GACGGG, which “6-mer SELEX enrichment z-score” value is on record?
Its value is 0.074.

With CCGCTG as the sequence, how does the “6-mer SELEX enrichment z-score” value read?
Its value is -0.31.

Which “6-mer SELEX enrichment z-score” value does the source give for ACCGAC here?
The value was -2.18.

Which “6-mer SELEX enrichment z-score” value does the source give for CACGTG here?
The value was -0.313.

Which “6-mer SELEX enrichment z-score” value does the source give for ACAGCA here?
The value was 0.354.

For TAATGT, which “6-mer SELEX enrichment z-score” value is on record?
The value was 1.03.

TAGCCG was tested. Which “6-mer SELEX enrichment z-score” value did it give?
Its value is -0.376.

With GACACT as the sequence, how does the “6-mer SELEX enrichment z-score” value read?
The value was -0.02.

How did the “6-mer SELEX enrichment z-score” value turn out when GAGCAT was run?
The value was -0.414.

Which “6-mer SELEX enrichment z-score” value does the source give for TGTAGA here?
Its value is -0.288.

For TCGATA, which “6-mer SELEX enrichment z-score” value is on record?
Its value is -0.032.

Which “6-mer SELEX enrichment z-score” value does the source give for TAGTTG here?
Its value is -0.007.

ATGTTA was tested. Which “6-mer SELEX enrichment z-score” value did it give?
The value was 0.599.

Which “6-mer SELEX enrichment z-score” value does the source give for TCAGCG here?
The value was -1.18.

Which “6-mer SELEX enrichment z-score” value does the source give for GAGTAA here?
The value was 0.002.

Which “6-mer SELEX enrichment z-score” value does the source give for GCTAGT here?
Its value is -0.341.

For GGCCCA, which “6-mer SELEX enrichment z-score” value is on record?
The value was -0.783.

With CCTGCG as the sequence, how does the “6-mer SELEX enrichment z-score” value read?
The value was -1.81.

Which “6-mer SELEX enrichment z-score” value does the source give for TGTCCC here?
Its value is -0.704.

TGCGCC was tested. Which “6-mer SELEX enrichment z-score” value did it give?
Its value is -0.636.

Which “6-mer SELEX enrichment z-score” value does the source give for GGGTTC here?
The value was 0.295.

Which “6-mer SELEX enrichment z-score” value does the source give for TCTTAT here?
The value was 0.745.

With GTACGA as the sequence, how does the “6-mer SELEX enrichment z-score” value read?
The value was -0.96.

For TCCAGT, which “6-mer SELEX enrichment z-score” value is on record?
Its value is 0.053.

CGCCAC was tested. Which “6-mer SELEX enrichment z-score” value did it give?
The value was -0.42.

How did the “6-mer SELEX enrichment z-score” value turn out when TAACAG was run?
Its value is 1.04.

Which “6-mer SELEX enrichment z-score” value does the source give for CGATCT here?
Its value is -0.553.

With CGCAAC as the sequence, how does the “6-mer SELEX enrichment z-score” value read?
The value was -0.606.

ATTCAA was tested. Which “6-mer SELEX enrichment z-score” value did it give?
The value was 0.889.

With GCAAGG as the sequence, how does the “6-mer SELEX enrichment z-score” value read?
Its value is 0.265.

Which “6-mer SELEX enrichment z-score” value does the source give for GCGTGG here?
Its value is -1.62.

How did the “6-mer SELEX enrichment z-score” value turn out when GGTCTA was run?
The value was 0.263.

Which “6-mer SELEX enrichment z-score” value does the source give for CTTCAC here?
Its value is 0.038.
